The values that follow come from publication PMC10668032.

The list shows a part of the results. At the low end of the ranking the order means little.

This assay deals with SIX1-Q177R homeodomain (UniProt Q15475). Put plainly: universal protein binding microarray. Conditions: Universal all-10-mer PBM (8x60K, AMADID 030236), 300 nM GST-tagged protein, Alexa Fluor 488 anti-GST; buffer, salt, pH and temperature not stated; high values mean tight binding; most listed sequences are background and not binding sites; double strand, one strand shown.
Regarding CTTACTCA, the binding signal was -0.0652 E-score. With CATGAGCG the figure was -0.369 E-score; with GGCTCACC, -0.093 E-score; with CGGATACG, 0.128 E-score. On to CGCACAGC, for which the binding signal is -0.0467 E-score.

For GATTCTGC, the binding signal is -0.175 E-score. For the sequence AATCGAAA, the binding signal is -0.248 E-score. Consider TTCCCGAA, for which the binding signal was determined as 0.00062 E-score.

With CAAATAGG, the binding signal is 0.011 E-score. With CCGGGCGA, the binding signal was 0.151 E-score. The same measure for AAATTCTG: -0.074 E-score; for GGCGGGAA: 0.00054 E-score; for ACGGTCAA: 0.0475 E-score.

Regarding AGGTTGTC, the binding signal amounted to 0.0665 E-score. With CTGCGATC, the binding signal was found to be 0.0103 E-score. The same measure for GCTACCTA: -0.23 E-score; for AGTCGGGA: 0.0497 E-score; for CTGTATGA: -0.117 E-score. The same measure for CAAGTCAG: -0.135 E-score; for CTCCCTTC: 0.0495 E-score; for ATATCGCC: -0.107 E-score. With GTCGTAAC the figure was 0.142 E-score; with GACATTCA, -0.0873 E-score; with GCGCTGGA, -0.182 E-score. For the sequence GAGATTCA, the binding signal stood at 0.0252 E-score. Regarding ATGGACTC, the binding signal was -0.00551 E-score.

Take CGACCCAG: the binding signal is 0.0629 E-score.

For the sequence CGTGAGAA, the binding signal was -0.0508 E-score.

For AAGGCATC, the binding signal is -0.171 E-score. The same measure for CAGAAAGA: -0.0959 E-score. With AGCCTAAA the figure was -0.0843 E-score. For the sequence CCCTACTC, the binding signal stood at 0.19 E-score. As for CCAGACGG, the binding signal is -0.135 E-score.

In the case of AAAGTCAA, the binding signal is -0.119 E-score. The same measure for ACCAATAC: 0.157 E-score; for AACACATG: 0.0393 E-score; for CGTCATTC: 0.105 E-score. With GTTACGAA the figure was -0.224 E-score; with CAATTGAG, -0.122 E-score. ACTCCCTA: the binding signal was 0.0637 E-score. With TAGAATGA the figure was -0.00577 E-score; with TAGTGTGA, 0.258 E-score; with CGCCACAG, -0.00816 E-score.

With GAGGGTCC, the binding signal was -0.0954 E-score. On to AAACTAAC, for which the binding signal was -0.0659 E-score.

As to ATGACAGG, the binding signal is -0.161 E-score. Take AAGCTGCG: the binding signal is -0.0893 E-score.

Take ACACCACG: the binding signal turned out to be 0.477 E-score. Take CGCCCGAG: the binding signal stood at 0.0232 E-score. As for CCATGTGA, the binding signal is 0.0239 E-score. As to GCTAGCCC, the binding signal was -0.25 E-score.

Take GAATAAAA: the binding signal is -0.0519 E-score. The same measure for ACTCGTCA: 0.0677 E-score; for AGTAGGTA: -0.0851 E-score. With ATGTTGTG the figure was -0.106 E-score; with AGTCAAGC, -0.206 E-score. The same measure for CAGACGAC: 0.0216 E-score; for ATCCGTAG: -0.0994 E-score; for AAGGCGTC: 0.129 E-score. Take GCTTAATA: the binding signal was -0.0465 E-score. Turning to CGACACGA, the binding signal turned out to be 0.421 E-score. For CGGACGTA, the binding signal is -0.00201 E-score. The same measure for CAGCCCTG: -0.0658 E-score. Take AACATAGC: the binding signal is -0.105 E-score. ATTGAGTC: the binding signal amounted to 0.117 E-score. Regarding GAAAGTAA, the binding signal was -0.096 E-score. In the case of AGCGTAGG, the binding signal was -0.0333 E-score. As for CCATGGGA, the binding signal turned out to be 0.153 E-score. For the sequence CTGCTCTA, the binding signal is -0.041 E-score. The same measure for GAACTTGC: -0.139 E-score; for CATTATGA: -0.196 E-score. The same measure for CCGATGTA: 0.0189 E-score; for CGACCGGA: -0.0307 E-score; for CGTTCATC: -0.0613 E-score.

For GAACGTGC, the binding signal was -0.192 E-score.

For the sequence GAATCAGC, the binding signal is -0.175 E-score.

On to ATGAAGAA, for which the binding signal is -0.133 E-score.

In the case of GGTGTCGA, the binding signal is 0.487 E-score. For AAGTTCTA, the binding signal is -0.156 E-score.

As to CGGCCCCA, the binding signal was -0.112 E-score. For AAACGCAA, the binding signal was -0.083 E-score. Turning to ATCTCATA, the binding signal is -0.114 E-score. The same measure for TCGAAACA: 0.111 E-score; for GGACCCTA: 0.0373 E-score. With ACCGTCTG the figure was -0.0931 E-score; with AGGAGGGA, -0.0403 E-score. The same measure for TCCGATAA: -0.0829 E-score; for AAAGCCCT: -0.258 E-score; for CCCAAGGA: 0.145 E-score. Turning to CCAGGGTC, the binding signal was found to be 0.0483 E-score. The same measure for GTGAAAGA: -0.138 E-score; for TAGATAAA: -0.0107 E-score; for CATGGTGG: 0.192 E-score.

Turning to AAAGTAGT, the binding signal was -0.0542 E-score.

Regarding GTACTAAC, the binding signal is 0.0577 E-score.

In the case of CCGGCGCC, the binding signal is -0.0804 E-score. Regarding TAAAAGGA, the binding signal was -0.155 E-score. For the sequence GCATTGAC, the binding signal was 0.075 E-score.

In the case of GGCCCAGA, the binding signal was -0.271 E-score. With GCGGATTA the figure was 0.0242 E-score; with ACGGCACT, -0.0842 E-score; with CTATAAGC, -0.174 E-score.

For the sequence GTTTGGTA, the binding signal is 0.0612 E-score.

Regarding ACTCGTAG, the binding signal was determined as 0.0813 E-score. With ACTGTTAA, the binding signal is -0.0992 E-score. Consider ATGATCAG, for which the binding signal was -0.133 E-score. With ACGATAAG the figure was -0.094 E-score; with AAGTCGAG, 0.0559 E-score. Consider TACCCGTA, for which the binding signal amounted to 0.168 E-score. Turning to CGCTCACG, the binding signal was -0.137 E-score. In the case of GGTGCTAA, the binding signal is 0.212 E-score. On to ACCACAGT, for which the binding signal amounted to 0.22 E-score. Take TTACGCAA: the binding signal is -0.0846 E-score. The same measure for AATCCAGC: -0.118 E-score; for TCGGGGAA: 0.172 E-score. As to AACACACG, the binding signal was 0.231 E-score.

On to AACGAAGG, for which the binding signal was -0.324 E-score. The same measure for ACGCCTGG: 0.128 E-score; for AATTTGCC: -0.283 E-score; for GGAAGCGA: -0.238 E-score.

Take ACTCAACT: the binding signal is -0.0929 E-score. The same measure for AGATGAGG: -0.135 E-score. In the case of ACCGAATC, the binding signal was 0.00705 E-score. As for ACCGTTCA, the binding signal came out at 0.0409 E-score. Consider ATTCTAGC, for which the binding signal came out at 0.0215 E-score.

CACCCTAC: the binding signal came out at 0.387 E-score.

CGATCAAC: the binding signal is -0.146 E-score. The same measure for AAATCAGA: -0.0536 E-score. The same measure for CCGCGGAG: 0.0522 E-score.

As to CGAAGAAG, the binding signal is -0.0975 E-score. Consider ACCGTATG, for which the binding signal was 0.0424 E-score. The same measure for ACGGCGCT: -0.147 E-score.

For the sequence CAGGAAGC, the binding signal is -0.183 E-score. For TTCCGGAA, the binding signal stood at 0.119 E-score. The same measure for CATACTGG: -0.0355 E-score. With CCTAGCAA the figure was 0.0893 E-score; with ACAGGAAA, -0.075 E-score. With CAAGAAGG, the binding signal is 0.0701 E-score. For AATTGCGG, the binding signal is -0.0813 E-score. With GTCATAAC the figure was 0.069 E-score; with GTTGTCGA, -0.00152 E-score. As to CTGGTTTC, the binding signal is -0.252 E-score. As to GGTACTGA, the binding signal was found to be 0.0678 E-score.

TAGCACAA: the binding signal was -0.198 E-score. With CCTTGATA the figure was -0.0158 E-score; with AACAGGGT, 0.0771 E-score; with GCTTCAAC, 0.0341 E-score. With TTGGCCAA the figure was 0.062 E-score; with AGCCTGGG, 0.0236 E-score. The same measure for CGCTGTGC: -0.0677 E-score. On to CCGATCAG, for which the binding signal was -0.154 E-score. With AAGCCAAT the figure was -0.135 E-score. With GACGAGCC the figure was 0.0315 E-score; with ACGCCGAG, 0.144 E-score; with CTCACCGC, 0.0619 E-score.

Consider AATCCGTC, for which the binding signal was -0.0414 E-score. With ACAAAACT the figure was -0.0435 E-score; with GAAAACGA, -0.152 E-score.

Consider AGTGCCAT, for which the binding signal was 0.0922 E-score. For AGACGTCA, the binding signal is -0.0593 E-score.

Turning to CAAACTAC, the binding signal came out at 0.0067 E-score.

Turning to CGAGAGCC, the binding signal was -0.209 E-score.

For the sequence CGGAAACG, the binding signal turned out to be 0.038 E-score.

In the case of GGCAGTAC, the binding signal was -0.077 E-score. Consider GAGCCATA, for which the binding signal was -0.136 E-score. On to GGACCGGA, for which the binding signal was -0.102 E-score. CTCCCACC: the binding signal was -0.0694 E-score. The same measure for AGCTGCCA: -0.243 E-score; for AACTCCTG: 0.122 E-score. With ACAAGCAG the figure was -0.0622 E-score; with AGTACCCG, 0.154 E-score; with CTAGCAAC, 0.0621 E-score.
